Laboratory results published in PubChem BioAssay AID686979 (National Center for Advancing Translational Sciences (NCATS), 2013).
Screen size: about 420,000 compounds; about 50,000 (12%) were called active. The inconclusive results got no clear call from the source; some entries with a clear call stand among them for comparison. Calls come from the whole dose curve; as a rule, active = well fitted inhibition curve with a large enough effect; inconclusive = small, poorly fitted or top-dose-only effect; inactive = flat fitted curve, though single readings scatter. No potency is given beside an inconclusive call; the fits are too rough.

Experiment: qHTS for Inhibitors of human tyrosyl-DNA phosphodiesterase 1 (TDP1): qHTS in cells in presence of CPT; note: nearly all actives have a fitted effect of over 55% in size
Conditions: chicken DT40 Tdp1-/-;hTDP1 cells + 20 nM CPT, ATP luminescence, 48 h; activity change, negative = growth inhibition: at 46.2 µM (top of the series) unless noted
Outline: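 Chicken DT40 Tdp1-/- cells stably complemented with human TDP1 were seeded at 400 cells/well in medium containing 20 nM camptothecin, exposed to pin-transferred compounds, and grown at 37 °C for at least 48 hr. Viability was read as ATP luminescence.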
% is set by controls: 0 for no effect and ±100 for the full control effect; potency is the fitted concentration of half-maximal effect; tags give direction and shape of the fitted curve.

Q: For `COC(=O)C(NC(C)=O)(Nc1ccc(C)cn1)C(F)(F)F` (stereo not drawn), which Potency is on record?
A: The Potency was “inactive”.

Q: Which Potency does the source give for `COC(=O)[C@]12CCCCC=C1N(CCc1ccc(OC)c(OC)c1)C(=O)[C@H](CC(=O)NCC1CCCCC1)C2` here?
A: Its Potency is inconclusive [inhibitor, single point].

Q: With `CCc1ccc(S(=O)(=O)c2nnn3c2nc(Nc2ccc(C)c(Cl)c2)c2sccc23)cc1` as the compound, how does the Potency read?
A: Its Potency is inconclusive [inhibitor, single point].

Q: Which Potency does the source give for `CN(CC(CC(=O)Nc1nncs1)c1ccccc1)S(=O)(=O)c1ccc(Br)cc1` (stereo not drawn) here?
A: The Potency was active: 16.4 µM.

Q: Which Potency does the source give for `Cc1cccc(N=C2NC(=O)/C(=C/c3cccnc3)S2)c1` here?
A: Its Potency is inconclusive [inhibitor, single point].

Q: For `CCCCN(C)CCCNC(=O)C1CCC(CNS(=O)(=O)c2c(C)cc(C)cc2C)CC1` (stereo not drawn), which Potency is on record?
A: The Potency was inconclusive [inhibitor, single point].

Q: With `COC(=O)c1ccc(CN2C(=O)C(C)N(C(=O)c3c(F)cccc3F)c3ccccc32)cc1` (stereo not drawn) as the compound, how does the Potency read?
A: Its Potency is active: 14.6 µM.

Q: Which Potency does the source give for `COc1ccc(NC(=O)C(c2ccccc2F)n2c(=O)c(-c3cc4ccccc4[nH]3)nc3ccccc32)cc1` (stereo not drawn) here?
A: Its Potency is active: 16.4 µM.

Q: For `COc1cc2c(cc1NC(=O)CSc1ccccn1)oc1ccccc12`, which Potency is on record?
A: The Potency was inconclusive [inhibitor, single point].

Q: With `C[C@H](NS(=O)(=O)c1ccc(Cl)cc1)C(=O)OCC(=O)N1CCOCC1` as the compound, how does the Potency read?
A: Its Potency is “inactive”.

Q: For `Cc1ccc(NC(=S)N=Nc2c(O)n(C)c3ccc(S(=O)(=O)N4CCOCC4)cc23)cc1`, which Potency is on record?
A: The Potency was active: 2.59 µM.

Q: Which Potency does the source give for `CCOc1ccc(CNc2ccc3c(c2)ncn3C(C)(C)C)cc1` here?
A: Its Potency is inconclusive [inhibitor, single point].

Q: With `C=C1C=C(C(F)F)n2ncc(C(=O)NCCc3ccccc3OC)c2N1` as the compound, how does the Potency read?
A: Its Potency is active: 15.8 µM.

Q: With `COc1cc2[nH]c(-c3cccc(F)c3)cc(=O)c2cc1OC` as the compound, how does the Potency read?
A: The Potency was inconclusive [inhibitor, single point].

Q: With `Cc1cc(C)nc(-n2ncc3c2CC(c2cccc(Cl)c2)CC3=O)n1` (stereo not drawn) as the compound, how does the Potency read?
A: The Potency was inconclusive [inhibitor, single point].

Q: With `CC(=O)Nc1cc(C(=O)NCc2ccc(C)cc2)ccc1S(=O)(=O)c1ccc(Cl)cc1` as the compound, how does the Potency read?
A: The Potency was inconclusive [inhibitor, single point].

Q: For `COc1ccc(/C=N/NC(=O)c2ccc(COc3cccc4cccnc34)cc2)cc1O`, which Potency is on record?
A: Its Potency is inconclusive [inhibitor, partial curve].

Q: For `COc1ccc(/C=N/NC(=O)Nc2cccc3nsnc23)c(OC)c1`, which Potency is on record?
A: The Potency was active: 11.6 µM.

Q: With `CC(=O)Oc1ccc(N2C(=O)C3C4C=CC(C5CC45)C3C2=O)cc1[N+](=O)[O-]` (stereo not drawn) as the compound, how does the Potency read?
A: Its Potency is inconclusive [inhibitor, single point].

Q: Which Potency does the source give for `O=C(/C=C/c1ccco1)NC(=S)Nc1ccccc1Br` here?
A: The Potency was inconclusive [inhibitor, single point].

Q: With `OCCC1CN(Cc2cn[nH]c2C2CCCCC2)CCN1C1CCCC1` (stereo not drawn) as the compound, how does the Potency read?
A: The Potency was “inactive”.

Q: For `COc1ccc(N2CCN(Cc3cc(=O)c(OCC(=O)Nc4ccccc4)co3)CC2)cc1`, which Potency is on record?
A: Its Potency is inconclusive [inhibitor, single point].

Q: Which Potency does the source give for `O=C(COC(=O)COc1cccc(F)c1)Nc1nc2ccccc2s1` here?
A: The Potency was “inactive”.

Q: With `Cc1ccc(O)c(C(=O)CC(=O)c2ccc(C(C)(C)C)cc2)c1` as the compound, how does the Potency read?
A: The Potency was active: 7.31 µM.

Q: For `CC1(OC(=O)CCc2ccccc2)C(=O)C=C2C=C(c3ccc(C#N)cc3)N(Cc3ccco3)C=C2C1=O` (stereo not drawn), which Potency is on record?
A: The Potency was inconclusive [inhibitor, single point].

Q: With `Cc1nn(CC(C)C)c(Cl)c1C(=O)NCC1CCCO1` (stereo not drawn) as the compound, how does the Potency read?
A: Its Potency is “inactive”.

Q: With `CCOc1ccc(CCNC(=O)COC(=O)c2n[nH]c3ccccc23)cc1OCC` as the compound, how does the Potency read?
A: The Potency was inconclusive [inhibitor, single point].

Q: With `O=C(c1cnc(Cl)c(Cl)c1)N1CCN(S(=O)(=O)c2ccc3ccccc3c2)CC1` as the compound, how does the Potency read?
A: The Potency was inconclusive [inhibitor, single point].

Q: For `O=C(NCCC1CCCCN1S(=O)(=O)c1ccc(F)cc1)C(=O)NC1CCCC1` (stereo not drawn), which Potency is on record?
A: Its Potency is inconclusive [inhibitor, single point].

Q: Which Potency does the source give for `CC(C)C[C@@H](COCc1cccc(C(F)(F)F)c1)N1CCN(C(=O)c2ccc(C(F)(F)F)cc2)CCC1=O` here?
A: Its Potency is inconclusive [inhibitor, single point].

Q: Which Potency does the source give for `COC(=O)c1ccc(CN2CCN(CCCc3ccccc3)C(CCO)C2)cc1` (stereo not drawn) here?
A: The Potency was inconclusive [inhibitor, single point].

Q: For `Cc1cnc(CNc2cc(-c3ccoc3)ncn2)cn1`, which Potency is on record?
A: The Potency was “inactive”.

Q: For `Cc1ccc(CNC(=O)c2cc(-c3ccccc3)nn2CC2CC(c3cccnc3)=NO2)cc1` (stereo not drawn), which Potency is on record?
A: The Potency was “inactive”.

Q: For `Cc1nnc(SCC(=O)c2c[nH]c3ccccc23)n1C1CC1`, which Potency is on record?
A: The Potency was “inactive”.

Q: Which Potency does the source give for `NS(=O)(=O)c1ccc(N=Nc2c[nH]c(=O)c(O)c2)cc1` here?
A: Its Potency is inconclusive [inhibitor, partial curve, poor fit].

Q: Which Potency does the source give for `CCOC(=O)c1cc(NC(=O)/C=C\C(=O)O)ccc1Cl` here?
A: The Potency was “inactive”.

Q: For `CC(C)(C)C1CCc2onc(C(=O)Nc3cnn(Cc4ccc(F)cc4)c3)c2C1` (stereo not drawn), which Potency is on record?
A: The Potency was inconclusive [inhibitor, partial curve, poor fit].

Q: With `C/C(=N\NC(=O)c1csc2ccccc12)c1ccc(O)cc1` as the compound, how does the Potency read?
A: Its Potency is inconclusive [inhibitor, partial curve].

Q: For `Cc1ccc(-n2ncc(C(=O)NCCN3CCCC3)c2C2CCN(C(=O)OC(C)(C)C)CC2)cc1`, which Potency is on record?
A: Its Potency is active: 23.1 µM.

Q: Which activity change, negative = growth inhibition does the source give for `COc1ccccc1-c1ccnc(-n2ncc(C(=O)N(C)C(C)c3ccon3)c2C2CC2)n1` (stereo not drawn) here?
A: Its activity change, negative = growth inhibition is inactive: -11.5% [at 9.04 µM].

Q: For `Cc1cc(C)c(NC(=O)c2cc(S(=O)(=O)NCCC3=CCCCC3)ccc2F)c(C)c1`, which Potency is on record?
A: The Potency was inconclusive [inhibitor, single point].

Q: For `CC(C)(C)c1ccc(OC(=O)N2CCOCC2)cc1`, which Potency is on record?
A: The Potency was inconclusive [inhibitor, partial curve].

Q: With `CC1CCN(C(=O)CN(c2ccc(Cl)c(C(F)(F)F)c2)S(C)(=O)=O)CC1` as the compound, how does the Potency read?
A: The Potency was inconclusive [inhibitor, single point].
